Test results reported in PubChem BioAssay AID1347120 (National Center for Advancing Translational Sciences (NCATS), 2019).
About 930 (0.24%) of roughly 390,000 compounds were called active. Inconclusive means that the source gave no clear call. Such entries were picked first, then a sample of the others. Calls come from the whole dose curve; as a rule, active = well fitted activation curve with a large enough effect; inconclusive = small, poorly fitted or top-dose-only effect; inactive = no such curve, though single readings can be large or run the other way. Where the call is inconclusive, the potency comes from a doubtful curve fit.

experiment: qHTS for Suppressors of FUS Proteinopathy: Primary screen using FUS-linked yeast assay; note: nearly all actives have a fitted effect of over 55% in size;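 for growth rescue (activation): plate controls were DMSO vehicle for no effect and reference control for full effect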; conditions: S. cerevisiae FUS-expressing, OD600, 24 h; Potency: growth rescue; growth rescue (activation): at 76.6 µM (top of the series)
How it was run: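 Read-out: OD at 600 nm after 24hr at 30C, reporting rescue of FUS-induced yeast toxicity. Cells at OD 0.005 in galactose (2%) minimal medium; compounds tested in a dilution series; CP55940 titration from 92uM final as control.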
Potency is the fitted concentration of half-maximal effect; tags give direction and shape of the fitted curve.

SMILES | Potency | growth rescue (activation)
Cc1[nH]n2c(=O)cc(-c3ccc(Cl)cc3)nc2c1-c1ccccc1 | inconclusive: 50.1 µM [activator, single point] | –
Nc1ccc(O)c(-c2nc3ccccc3s2)c1 | inconclusive: 31.6 µM [activator, partial curve, poor fit] | –
Cc1ccc(-c2cc(N)n(-c3ccc(C)cc3)n2)cc1 | inconclusive: 50.1 µM [activator, single point] | –
COc1ccc(C2=NN(C(=O)c3ccccc3C(=O)O)C(c3ccccc3O)C2)cc1 (stereo not given) | inconclusive: 20 µM [activator, partial curve, poor fit] | –
CC(/C=N/n1cnnc1)=C\c1ccco1 | inconclusive: 44.7 µM [activator, partial curve, poor fit] | –
Cc1cccc(NC(=O)CSc2nnc(-c3ccccc3Br)o2)c1C | inconclusive: 31.6 µM [activator, partial curve, poor fit] | –
CCCCC[C@H](O)/C=C/[C@@H]1[C@@H](C/C=C\CCCC(=O)OC)[C@@H](O)C[C@H]1O | – | inactive: 9.66%
C/C=C/C(=O)Nc1cccc(C2=NOC3(C2)C[C@@H](C(N)=O)N(C(=O)C(c2ccccc2)c2ccccc2)C3)c1 (stereo not given in full) | inconclusive: 12.6 µM [activator, partial curve, poor fit] | –
Cc1ccc(-c2ccnc3c(Br)c(C)nn23)cc1 | – | inactive: -14.8%
Cc1ccc(C(=O)N2CCc3cc(CNC(=O)CSc4ccccc4)ccc32)cc1 | – | inactive: 42.5%
Cc1ccc(NC(=O)CN2C(=O)N/C(=C\c3cccn3-c3cccc(C(=O)O)c3)C2=O)cc1 | inconclusive: 3.55 µM [activator, full curve] | –
Cc1cccc(NC(=O)CSc2nc(-c3cccs3)cc(C(F)(F)F)c2C#N)c1C | inconclusive: 11.2 µM [activator, single point] | –
O=C(NCCc1csc(-c2ccc(C(F)(F)F)cc2)n1)c1ccc(F)c(F)c1 | inconclusive: 12.6 µM [activator, partial curve, poor fit] | –
CCOC(=O)CSc1nc2ccsc2c(=O)n1C1CCN(C(=O)OCC)CC1 | – | inconclusive: 74.5% [activator]
CNC(=O)C1CN(C(=O)c2nn(Cc3ccccc3)c(=O)c3ccccc23)c2ccccc2O1 (stereo not given) | inconclusive: 28.2 µM [activator, single point] | –
Cc1ccc(S(=O)(=O)N2CCC(C(=O)Nc3ccc(S(=O)(=O)N4CCCC4)cc3)CC2)cc1 | inconclusive: 22.4 µM [activator, partial curve] | –
COc1ccc(Cl)cc1S(=O)(=O)N1CCN(C(=O)CSc2nc3ccccc3nc2N2CCCC2)CC1 | inconclusive: 28.2 µM [activator, single point] | –
O=C(C1CCCN1S(=O)(=O)c1cccc2ccccc12)N1CCN(c2ccccc2)CC1 (stereo not given) | – | inactive: 40.3%
CCOC(=O)c1ccc(NC2c3ncccc3C(=O)N2Cc2ccc(F)cc2)cc1 (stereo not given) | inconclusive: 56.2 µM [activator, partial curve, poor fit] | –
CCCCCCSc1nnc(-c2cnn(-c3ccccc3)c2-n2cccc2)n1C | – | inactive: 28.7%

SMILES | Potency | growth rescue (activation)
C/C(N)=C(/C#N)C(=O)COC(=O)c1cc2c(s1)CCC(C)C2 (stereo not given) | – | inactive: 24.2%
O=C(CSc1nc(-c2ccccc2)c(-c2ccccc2)[nH]1)N1CCN(S(=O)(=O)c2ccccc2)CC1 | inconclusive: 25.1 µM [activator, partial curve, poor fit] | –
CCCC(=O)Nc1ccc(-c2csc(N/N=C\c3ccncc3)n2)cc1 | inconclusive: 31.6 µM [activator, single point] | –
Cc1ccc(Cl)cc1Nc1nn2c(=O)c3ccc(C(=O)Nc4ccc(F)cc4)cc3nc2s1 | – | inactive: -17.9%
CCCCNC(=O)c1cn(-c2ccc(OCC)cc2)c(=O)c2cc(OC)c(OC)cc12 | inconclusive: 28.2 µM [activator, partial curve, poor fit] | –
CCN(CC)S(=O)(=O)c1ccc2c(c1)N(CC(=O)N1CCN(c3cccc(Cl)c3)CC1)C(=O)CO2 | inconclusive: 22.4 µM [activator, single point] | –
Cc1ccc(NC(=O)N2CCc3cc(S(=O)(=O)N4CCC(C)CC4)ccc32)cc1 | – | inactive: 25.1%
Cc1cc(=O)oc2cc(OCC(=O)NCc3ccco3)ccc12 | – | inactive: 4.29%
O=C1NC[C@@H](CCCCN2C[C@H](Cc3ccc(O)cc3)N(CCc3ccccc3)C(=O)C2=O)N(CC2CCCCC2)C1=O | inconclusive: 10 µM [activator, partial curve, poor fit] | –
CCCCCCCCN1C(=O)[C@@H](CC(=O)NCCCN2CCCC2=O)C[C@@]2(C(=O)OC)C1=C[C@H](C(C)C)O[C@@H]2C1CC1 | active: 17.8 µM | –
Cc1cccc(NC(=S)N(Cc2cccc(Br)c2)CC2CCC(C(=O)O)CC2)c1 (stereo not given) | inconclusive: 35.5 µM [activator, single point] | –
COc1cccc(-c2nc(NCc3cccnc3)c3ccccc3n2)c1O | – | inactive: 17.4%
CCCc1nc2ccc(NC(=O)c3ccco3)cc2c(=O)n1Cc1ccccc1Cl | – | inactive: 9.8%
Cc1ccc(-c2cc(C(=O)N3CCCc4ccccc43)c3ccccc3n2)cc1 | inconclusive: 25.1 µM [activator, partial curve, poor fit] | –
CN(CC(=O)NCc1ccc(Cl)cc1)S(=O)(=O)c1ccc2[nH]c3c(c2c1)CCCC3 | inconclusive: 35.5 µM [activator, single point] | –
Cc1ccccc1-c1cc(C(=O)NCC2CC2)nn1CC1CC(c2cccc([N+](=O)[O-])c2)=NO1 (stereo not given) | inconclusive: 39.8 µM [activator, single point] | –
CCn1c(SCc2ccccc2C)nc(=O)c2c(C(=O)OC)cc(C3CC3)nc21 | inconclusive: 25.1 µM [activator, partial curve, poor fit] | –
Cc1ccc(-n2c(C)cc(C3=NNC(=NC4CC4)SC3)c2C)cc1C | inconclusive: 35.5 µM [activator, single point] | –
O=C(C1CCN(Cc2ccc(F)cc2)CC1)N1CCN(C/C=C/c2ccccc2)CC1 | – | inactive: 17.8%
COc1cc(CNc2ccc3[nH]c(=O)[nH]c3c2)cc(Cl)c1OCC(=O)NC(C)(C)C | inconclusive: 39.8 µM [activator, partial curve, poor fit] | –

SMILES | Potency | growth rescue (activation)
CCC(=O)Oc1cc(C(C)(C)C)cc2cc(-c3nc(-c4ccc(OC)cc4OC)no3)c(=O)oc12 | – | inactive: -6.34%
O=C(C1=C(O)C(=O)N(CC2CCCO2)C1c1ccc(Cl)cc1)c1ccco1 (stereo not given) | inconclusive: 35.5 µM [activator, partial curve, poor fit] | –
O=C(/C=C/c1ccccc1Cl)Nc1cccc(S(=O)(=O)NC2=NCCCCC2)c1 | inconclusive: 44.7 µM [activator, partial curve, poor fit] | –
Cc1ccc(-c2nc(CS(=O)CC(=O)NC(C)CCc3ccccc3)c(C)o2)cc1 (stereo not given) | inconclusive: 22.4 µM [activator, partial curve, poor fit] | –
Cc1csc2ncc(C(=O)NCCC(c3ccccc3)c3ccccc3)c(=O)n12 | inconclusive: 39.8 µM [activator, partial curve, poor fit] | –
COc1ccc(C(=O)Nc2cccc(-c3cn4ccsc4n3)c2)c(OC)c1 | inconclusive: 25.1 µM [activator, single point] | –
O=S(=O)(Nc1cccc(C(F)(F)F)c1)c1ccc(NS(=O)(=O)c2ccc3c(c2)OCCO3)cc1 | inconclusive: 31.6 µM [activator, single point] | –
CC(C)C[C@H]1CNC(=S)N1CC1CCCN1C[C@H](CC(C)C)N1C[C@H](Cc2ccc(O)cc2)N(CC2CCCCC2)C1=S (stereo not given in full) | inconclusive: 25.1 µM [activator, single point] | –
Cc1cccc(N2CCN(C(=O)CN3C(=O)COc4ccc(S(=O)(=O)N5CCC(C)CC5)cc43)CC2)c1C | – | inactive: -10.3%
COc1ccc(C2=NOC(Cn3nc(C(=O)NCc4ccco4)cc3-c3ccccc3)C2)cc1 (stereo not given) | inconclusive: 28.2 µM [activator, single point] | –
O=C(Nc1ccc(Br)cc1F)c1sccc1-n1cccc1 | – | inactive: -9.6%
Cc1ccc(NC(=O)CSc2nc3ccccc3n2CC(=O)N2CCC(C)CC2)cc1C | inconclusive: 7.08 µM [activator, full curve, poor fit] | –
C/C(N)=C(/C#N)C(=O)CSc1nc2ccccc2c(=O)n1Cc1ccc(C)cc1 | – | inactive: 26.7%
COC(=O)[C@]12C=CCN1[C@H](c1ccc(OC)c(OC)c1)c1c(c3ccccc3n1S(=O)(=O)c1ccc(C)cc1)C2 | inconclusive: 22.4 µM [activator, single point] | –
CCOC(=O)C1=CCN(S(=O)(=O)c2ccc(Br)cc2)C1c1ccc(C)cc1 (stereo not given) | inconclusive: 50.1 µM [activator, single point] | –
CCCCC(=O)N[C@H]1CC[C@@]23CCCN2C(=O)CCC[C@H]3[C@H]1C | – | inactive: -11.7%
Cc1ccc(S(=O)(=O)C[C@@H]2OC[C@H](C(C)C)N2S(=O)(=O)c2ccc(C)cc2)cc1 | inconclusive: 20 µM [activator, partial curve, poor fit] | –
CCN(CC)S(=O)(=O)c1cccc(NC(=O)c2ccc(Sc3nncn3C)c([N+](=O)[O-])c2)c1 | inconclusive: 17.8 µM [activator, partial curve] | –
COC(=O)c1ccc(NC(=O)CN2CCCN(Cc3ccc(Cl)cc3)S2(=O)=O)cc1 | – | inactive: -14.9%
O=C1c2ccccc2S(=O)(=O)N1CC(O)Cn1c2ccccc2c2ccccc21 (stereo not given) | inconclusive: 20 µM [activator, partial curve, poor fit] | –
